# Reference: PubChem BioAssay AID1508642 (National Center for Advancing Translational Sciences (NCATS), 2021)
# Out of some 43,000 compounds screened, about 200 (0.47%) were called active. Not shown: some 12% with an inconclusive outcome. Calls come from the whole dose curve; as a rule, active = well fitted cell-killing curve with a large enough effect; inconclusive = small, poorly fitted or top-dose-only effect, or effect the other way; inactive = flat fitted curve, though single readings scatter. The list shows a part of the results.
# Test: Cell viability qHTS assay in S16 Pmp22-F2sN cells; note: nearly all actives have a fitted effect of over 65% in size
# Details: S16 Pmp22-F2sN Schwann cells (luciferase reporters placed in the Pmp22 gene) viability, CellTiter-Glo, 24 h; series mostly up to 57.5 µM; activity change, negative = cytotoxicity: at the top concentration
# Outline: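 Seed 500-1,000 S16 Pmp22-F2sN cells per well in phenol-red-free DMEM with 10% heat-inactivated FBS; pin-add 23 nL compound; incubate 24 h at 37C; add CellTiter-Glo, wait 15 min protected from light; read luminescence.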
# % is set by controls: 0 for no effect and ±100 for the full control effect.
row,Compound,"activity change, negative = cytotoxicity"
1,COc1ccc(-c2nc3ccccc3o2)cc1NC(=O)c1ccc(-c2ccc(Br)cc2)o1,inactive: 14.2%
2,CCOC(=O)c1nn2c(C(F)(F)F)cc(-c3ccc(C)cc3)nc2c1Cl,inactive: 11.5%
3,CCCCC(=O)Nc1nnc(SCc2cc(=O)n3cc(C)ccc3n2)s1,inactive: 0.857%
4,O=C(Nc1ccc(F)c(F)c1)c1cc(S(=O)(=O)NCc2ccc3c(c2)OCO3)ccc1F,inactive: -6.37%
5,COc1ccc(C2=NC3(CCCCCC3)N(CC(=O)Nc3cccc(Cl)c3)C2=O)cc1,inactive: -23.8%
6,Cc1ccn2c(Nc3ccc4c(c3)OCO4)c(-c3ccc(Cl)cc3)nc2c1,inactive: -0.272%
7,COc1cccc(CNC(=O)CN2CCCN(Cc3ccccc3)S2(=O)=O)c1,inactive: -4.2%
8,Cc1ccc(CNC(=O)CSc2nc(=O)n(Cc3ccco3)c3c2CCC3)cc1,inactive: 1.39%
9,COc1ccc(-c2c(C#N)c(SCC(=O)Nc3ccc(C)cc3)nc(C)c2C(=O)Nc2ccccc2)cc1,inactive: -5.51%
10,Cc1ccc2c(c1)cc1c(=O)n(CC(=O)NC(C)CCc3ccccc3)nc(C)n12 (centres undefined),inactive: 13.1%
11,CCOc1nc(NC(=O)NS(=O)(=O)Oc2cccc(Cl)c2)nc(-c2ccccc2)n1,inactive: -0.0426%
12,Cn1c2c(c(=O)n(C)c1=O)C(c1ccccc1[N+](=O)[O-])CC(=O)N2 (centres undefined),inactive: 22.6%
13,COc1ccc(-c2nn(-c3ccc(F)cc3)c3c2cnc2cc4c(cc23)OCO4)cc1,inactive: 9.46%
14,CCc1ccccc1NC(=O)CSc1nc2n[nH]c(C)c2c(=N)n1-c1cccc(C)c1,inactive: -10.5%
15,CCc1ccc(NC(=O)c2cc(S(=O)(=O)N3CCCCC3)c[nH]2)cc1,inactive: -0.36%
16,COc1ccc(C2c3c(n(C)c4ccccc34)C(=O)N2CC(=O)Nc2ccccc2Cl)cc1 (centres undefined),inactive: -4.06%
17,COc1cc(NC(=O)c2cc3nc(-c4ccc(C)cc4)cc(C(F)(F)F)n3n2)cc(OC)c1OC,inactive: 27.3%
18,COc1ccc(CCNC(=O)c2c[nH]n3c(=O)c(Cc4ccccc4Cl)c(C)nc23)cc1OC,inactive: -16.9%
19,O=C(Nc1cc(-c2nc3cc(Cl)ccc3o2)ccc1Cl)c1cccc2ccccc12,inactive: -0.532%
20,CCn1c2c(c(=O)n3ncc(C(=O)Nc4ccc(OC(F)(F)F)cc4)c13)CN(Cc1ccc(OC)cc1)CC2,inactive: -0.125%
21,COc1ccc(OCc2ccc(-c3nc(C#N)c(N4CCC(C(N)=O)CC4)o3)o2)cc1,inactive: -1.67%
22,Cc1ccc(CNC(=O)c2nnn(Cc3ccc(F)cc3)c2N)cc1,inactive: 0.762%
23,CC(=O)c1cccc(NC(=O)Cn2c(=O)oc3cc(S(=O)(=O)NCc4ccccc4)ccc32)c1,inactive: -1.32%
24,O=S(=O)(Nc1ccc(F)cc1F)c1ccc(Br)s1,inactive: 5.21%

row,Compound,"activity change, negative = cytotoxicity"
1,COc1ccc(CNS(=O)(=O)c2ccc3c(c2)NC(=O)C(C)C(=O)N3)cc1 (centres undefined),inactive: 18%
2,Cc1nnc(N2CCC(C(=O)N3CCCCC3)CC2)c2nn(-c3ccccc3)c(C)c12,inactive: -16.3%
3,Cc1ccc(C)c(S(=O)(=O)Nc2ccc3c(c2)CCCN3C(=O)c2cccs2)c1,inactive: -20%
4,Cc1ccc(C)c(Nc2ncnc3c2cnn3-c2ccc(F)cc2)c1,inactive: 2.16%
5,Fc1ccc([C@@H]2Nc3ccccc3[C@@H]3C=CC[C@@H]32)cc1,inactive: -6.45%
6,Cc1ccc(C)c(NC(=O)CSc2ncc3c(n2)-c2ccccc2N(Cc2ccccc2C)S3(=O)=O)c1,inactive: -0.412%
7,O=C(Cn1cc(S(=O)(=O)c2ccc(Cl)cc2)c(=O)c2ccccc21)Nc1ccc2c(c1)OCO2,inactive: 12.6%
8,COc1ccc(/C=C/c2nc(C#N)c(N3CCCCCC3)o2)cc1OC,inactive: -29.6%
9,CCCc1c(C(=O)OCC)nnc2c(-c3ccccc3)c(C)nn12,inactive: 2.86%
10,COc1ccc(CCN2C(=O)N(c3ccc(F)cc3)C(=O)C2CC(=O)Nc2ccccc2)cc1OC (centres undefined),inactive: -3.47%
11,COc1ccc(CNc2n[nH]c(-c3ccco3)n2)cc1OC,inactive: -1.91%
12,CCc1ccc(Nc2ncnc3sc4c(c23)CCCC4)cc1,inactive: 5.17%
13,COc1cc(NC(=O)Cn2c(=O)n(Cc3ccccc3Cl)c(=O)c3cc(OC)c(OC)cc32)cc(OC)c1,inactive: 7.85%
14,Cc1ccc(-n2ncc(C(=O)N3CCN(c4ncccn4)CC3)c2C2CCN(C(=O)OC(C)(C)C)CC2)cc1,inactive: 8.64%
15,CCCN(CCC)S(=O)(=O)c1ccc(N2CCCCS2(=O)=O)cc1,inactive: -0.0364%
16,CCOc1ccc(-n2cc(-c3ccccc3)c3c(NCc4ccc(F)cc4)ncnc32)cc1,inactive: -15.3%
17,COc1ccc(-c2cc(C(F)(F)F)nc(SCCC(=O)Nc3ccc(O)cc3)n2)cc1,inactive: -2%
18,CCn1c2ccccc2c2nnc(N3CCN(c4ccc(OC)cc4)CC3)nc21,inactive: 21.7%
19,CCOC(=O)Cn1nc(C)c(NC(=O)COc2ccc(C)c(C)c2)c1C,inactive: 0.0241%
20,CCN(CC)C(=O)CSc1cn(CC(=O)N2CCCCCC2)c2ccccc12,inactive: 11.4%
21,Cc1ccc(NC(=O)C2CCN(c3nc4ccccc4nc3C(F)(F)F)CC2)cc1C,inactive: -1.81%
22,CCCCCc1ccc(-c2ccc(C(=O)Oc3ccc(C(=O)OC)cc3)cc2)nc1,inactive: 11%
23,Cc1ccc(S(=O)(=O)C2(C(=O)Nc3ccc(C(C)C)cc3)CC2)cc1,inactive: 3.36%
24,COc1ccc(CNc2nc(-c3ccc(Cl)cc3)nn2C(=O)c2ccccc2)cc1,inactive: -15%

row,Compound,"activity change, negative = cytotoxicity"
1,Cc1ccc(-c2nc(-c3cc4cccc(OCc5cccc(F)c5)c4oc3=O)no2)cc1,inactive: 3.8%
2,CCOc1ccc(-n2c(Cc3ccccc3)nnc2SCc2nc(-c3cccs3)no2)cc1,inactive: -0.321%
3,COc1cccc(NC(=O)c2sc3nc(C)c(C(=O)Nc4ccc(C)cc4C)c(-c4cccs4)c3c2N)c1,inactive: 1.05%
4,COC(=O)CN1C(=O)C(C)(C)c2cc(S(=O)(=O)NCc3ccc(Cl)cc3)ccc21,inactive: -8.72%
5,Cc1ccc2scc(N3CCN(c4cccc(C(F)(F)F)c4)CC3)c(=O)c2c1,inactive: 10.4%
6,Cc1cc(C)cc(NC(=O)C2CCN(S(=O)(=O)c3c(C)noc3/C=C/c3ccco3)CC2)c1,inactive: 25.9%
7,Cc1ccn2c(Nc3c(C)cccc3C)c(-c3ccc(Cl)s3)nc2c1,inactive: -1.83%
8,Cc1cc(NC(=O)CSc2nc3c([nH]c4ccccc43)c(=O)n2-c2ccc(Cl)cc2)no1,inactive: 16.4%
9,Cc1cc(=O)n(Cc2ccccc2Cl)c2c1c(C)nn2-c1ccccc1,inactive: 1.25%
10,COc1ccccc1C(=O)Nc1ccc(OCc2cc(=O)n3cccc(C)c3n2)cc1,inactive: 1.62%
11,Cc1cccc(OCc2nnc(-c3ccccc3)o2)c1,inactive: -7.02%
12,CCN1CCN(C(=O)c2ccc3c(c2)N(Cc2ccc(F)cc2)C(=O)c2ccccc2S3(=O)=O)CC1,inactive: 4.89%
13,CCOc1ccc(NC(=O)c2oc(=O)c3ccccc3c2-c2ccc(C)cc2)cc1,inactive: 12.9%
14,CCn1c2c(c(=O)n3ncc(C(=O)Nc4ccc(F)cc4Cl)c13)CN(Cc1ccc(OC)cc1)CC2,inactive: -14.6%
15,O=C(CC1Oc2ccccc2NC1=O)NCc1ccc(F)cc1 (centres undefined),inactive: 13.7%
16,COc1ccc(CC(=O)Nc2nnc3n2CCS3)cc1,inactive: 1.46%
17,O=c1oc2ccc(F)cc2cc1-c1nc(-c2cccs2)no1,inactive: 6.11%
18,Cc1ccc(CSc2nc3ccsc3c(=O)n2CCC(C)C)cc1,inactive: -5.05%
19,Cc1ccc(C)c(N2CCN(C(=O)Cn3c(C)c4cnn(-c5ccccc5)c(=O)c4c3C)CC2)c1,inactive: -26.5%
20,CCOC(=O)c1cc(OC(=O)c2cccc(Cl)c2)n(-c2ccccc2)n1,inactive: 6.59%
21,COc1cc(NC(=O)Cn2c(=O)nc(-c3ccccc3F)c3cc(Cl)ccc32)cc(OC)c1,inactive: -20%
22,CCN(C(=O)Cn1cc(C(=O)c2ccc(F)cc2)c(=O)c2ccc(C)nc21)c1cccc(C)c1,inactive: -3.41%
23,COC(=O)c1ccccc1NC(=O)Cn1nc(C(F)(F)F)c2c1CCCC2,inactive: -28.1%
24,Cc1cc(C)c2c(CC(=O)Nc3c(C(=O)c4ccc(F)cc4)oc4ccccc34)coc2c1,inactive: 1.67%

row,Compound,"activity change, negative = cytotoxicity"
1,Cc1ccc2c(c1)CC(C)N2S(=O)(=O)c1nnc(NC(=O)CC(C)C)s1 (centres undefined),inactive: -1.15%
2,COc1ccc(OC)c(NC(=O)CCc2c(C)nc3c(c(C)nn3C(C)(C)C)c2C)c1,inactive: 14.3%
3,CC(C)c1nc2ccc(C(=O)NCCCN3CCN(c4ccc(F)cc4)CC3)cc2o1,inactive: 7.57%
4,COc1cccc(-n2c(-c3ccc(C)cc3)cc3c2CC(C)(C)CC3=O)c1,inactive: -9.48%
5,COCCNC(=O)CCSc1nc(-c2ccc3c(c2)OCO3)cc(C(F)(F)F)n1,inactive: -1.07%
6,CCc1nnc2c(NCc3cccc(OC)c3)nc3ccccc3n12,inactive: 5.32%
7,COc1ccccc1N1CCN(c2cc(C)nc3c(-c4ccc(Cl)cc4)c(C)nn23)CC1,inactive: 6.47%
8,CN(C)c1ccc(CNC(=O)CCn2c(=O)c3cccn3c3ccc(F)cc32)cc1,inactive: 7.22%
9,COc1cccc(-c2[nH]c3c(c2-c2c(-n4cccc4)n(C)c(=O)[nH]c2=O)c(=O)[nH]c(=O)n3C)c1,inactive: -0.967%
10,COCCCNc1nc2c(c(=O)n(C)c(=O)n2C)n1Cc1ccccc1,inactive: -21.1%
11,COCCOC(=O)C1=C(C)N=C2SCCC(=O)N2C1c1ccc(OCc2ccccc2)c(OC)c1 (centres undefined),inactive: 7.47%
12,Cc1cn(C)c(CC(=O)N2CCN(c3ccc(F)cc3)CC2)c1C(=O)O,inactive: 8.14%
13,Cc1ccc(NS(=O)(=O)c2ccc3c(c2)NC(=O)CCS3)cc1F,inactive: -0.334%
14,O=C(NCc1ccc2c(c1)CCN2C(=O)c1ccccc1)c1ccc(Br)o1,inactive: -6.78%
15,CCOc1ccccc1C(=O)Nc1nnc(COC)s1,inactive: -2.09%
16,Cc1ccc(C(=O)N2CCc3cc(CNC(=O)c4ccnn4C)ccc32)cc1,inactive: -25.1%
17,CCN(CC)S(=O)(=O)c1ccc2c(c1)c(=O)c(C(=O)NCc1ccccc1OC)cn2C,inactive: -14.9%
18,COc1cc(C2c3c(-c4c(C)cc(C)cc4O)n[nH]c3C(=O)N2CCCOC(C)C)cc(OC)c1OC (centres undefined),inactive: -1.57%
19,CCc1ccccc1NC(=O)CN1C(=O)COc2ccc(S(=O)(=O)Nc3ccccc3)cc21,inactive: 0.603%
20,CCC1CN(S(=O)(=O)c2ccc3c(c2)NC(=O)CC(=O)N3)c2cc(Cl)ccc2O1 (centres undefined),inactive: -22.1%
21,Cn1c(=O)c2c(-c3ccccc3Cl)n(Cc3ccc(Cl)cc3)cc2n(C)c1=O,inactive: 5.32%
22,Cc1cccc(N2CCN(C(=O)CCC(=O)NNc3nc4ccccc4c4nc(C)nn34)CC2C)c1 (centres undefined),inactive: -11.6%
